Measured values published in PubChem BioAssay AID624417 (National Center for Advancing Translational Sciences (NCATS), 2012).
Screen size: about 410,000 compounds; about 6,400 (1.6%) were called active. Inconclusive results, whose numbers are uncertain, are shown with a selection of clear calls. The call rests on the fitted dose curve; in most records, active means well fitted inhibition curve with a large enough effect; inconclusive means small, poorly fitted or top-dose-only effect; inactive means no such curve, though single readings can be large or run the other way. Potencies of inconclusive entries are left out as doubtful fits.

Target: Glucagon-like peptide 1 receptor (Homo sapiens) (UniProt P43220)
UniProt P43220, sequence (P43220 whole entry, looked up): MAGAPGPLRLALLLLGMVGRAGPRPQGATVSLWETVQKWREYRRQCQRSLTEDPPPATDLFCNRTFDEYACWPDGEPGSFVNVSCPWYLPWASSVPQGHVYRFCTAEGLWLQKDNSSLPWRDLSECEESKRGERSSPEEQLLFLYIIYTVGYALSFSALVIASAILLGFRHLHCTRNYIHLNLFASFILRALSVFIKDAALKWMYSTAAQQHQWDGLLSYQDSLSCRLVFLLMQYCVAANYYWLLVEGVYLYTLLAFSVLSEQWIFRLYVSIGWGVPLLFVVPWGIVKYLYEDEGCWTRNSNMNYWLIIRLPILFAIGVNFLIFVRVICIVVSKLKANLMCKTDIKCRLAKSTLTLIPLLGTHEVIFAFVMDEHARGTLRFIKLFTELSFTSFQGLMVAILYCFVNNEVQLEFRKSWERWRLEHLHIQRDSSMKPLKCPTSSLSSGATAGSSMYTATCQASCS
Assay: qHTS of GLP-1 Receptor Inverse Agonists (Inhibition Mode); further: nearly all actives have a fitted effect of over 55% in size
Conditions: HEK293 GLP-1R CRE-luciferase, luminescence, 24 h, GLP-1R form is constitutively active; activity change, negative = inhibition: at 38.3 µM (top of the series) unless noted
Outline: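 Constitutively active GLP-1R drives a cAMP-responsive luciferase in stably transfected HEK293 cells; test compounds are added after overnight (12 h) attachment and left 24 hr, and signal loss in luminescence marks inhibition.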
On the % scale 0 is the no-effect control and ±100 the full control effect; potency means the concentration at half of the fitted maximal effect; tags describe the fitted curve by direction and shape.

Structure (SMILES) | Potency | activity change, negative = inhibition
O=C(C[C@@H]1C[C@H]2c3cc(NC(=O)C4CCC4)ccc3O[C@H]2[C@@H](CO)O1)NCc1ccc(-c2ccccc2)cc1 | inconclusive [inhibitor, single point] | 
COc1cc(C(=O)O[C@H]2CC(C)=CC[C@@]3(C)CC[C@@](O)(C(C)C)[C@H]23)ccc1O | inconclusive [inhibitor, single point] | 
COc1cccc(Nc2nc(C(N)c3ccccc3Cl)cs2)n1 (stereo not drawn) | inconclusive [inhibitor, single point] | 
O=S(=O)(c1ccc2ccccc2c1)N1CCN(C(=S)Nc2ccc(F)cc2)CC1 | inconclusive [inhibitor, single point] | 
COCCN(Cc1cc2cc(C)ccc2n2nnnc12)C(=S)Nc1cccc(C)c1 |  | inactive: 1.96%
Cc1cccc(C)c1NC(=O)C(c1ccccc1)n1c(-c2ccccc2)nc2ccccc21 (stereo not drawn) | inconclusive [inhibitor, single point] | 
COC(=O)c1cc(-c2ccc(F)cc2)n(-c2ccccc2)n1 | inconclusive [inhibitor, partial curve, poor fit] | 
O=C(c1ccc(S(=O)(=O)N2CCCC2)cc1)N1CCN(c2cccc(Cl)c2)CC1 | inconclusive [inhibitor, partial curve, poor fit] | 
O=S(=O)(c1ccc(SCc2c(F)cccc2Cl)nc1)N1CCCC1 | inconclusive [inhibitor, single point] | 
Cc1cc(NCCO)c2cc(O)ccc2n1 |  | inactive: 18%
COc1ccc(N2C(=O)N3[C@H](c4ccc(Br)cc4)[C@@H]4C(=O)N(C(C)(C)C)C(=O)[C@@H]4[C@]3(Cc3ccccc3)C2=O)cc1 | inconclusive [inhibitor, single point] | 
CC1(Cc2ccc(F)c(Cl)c2)C(=O)Nc2c(Cl)cccc21 (stereo not drawn) | inconclusive [inhibitor, partial curve, poor fit] | 
Brc1ccc(-c2noc(COc3ccc4ccccc4c3)n2)o1 | inconclusive [inhibitor, partial curve, poor fit] | 
Cc1ccc(CNC(=O)Cc2csc3ccccc23)cc1 |  | inactive: -14.3%
CCC1Sc2ccc(S(=O)(=O)N3CCN(c4ccccc4)CC3)cc2NC1=O (stereo not drawn) | inconclusive [inhibitor, partial curve, poor fit] | 
CCc1nn2c(=O)cc(COC(=O)c3ccccc3NC(=O)COc3ccc(C)c(C)c3)nc2s1 |  | inactive: 2.46%
C[C@H](CO)N1C[C@H](C)[C@@H](CN(C)Cc2ccc(Oc3ccccc3)cc2)Oc2c(NC(=O)c3ccncc3)cccc2C1=O | inconclusive [inhibitor, single point] | 
Cc1oc(-c2ccccc2F)nc1CN1CCC(C(=O)NCCc2ccccc2)CC1 | inconclusive [inhibitor, single point] | 
CC(C(=O)Nc1ccc(OC(F)(F)F)cc1)N1Cc2ccccc2C1=O (stereo not drawn) | inconclusive [inhibitor, single point] | 

Structure (SMILES) | Potency | activity change, negative = inhibition
O=C(Cn1ncc2c([nH]c3ccccc32)c1=O)NCCCN1CCN(c2ccccc2)CC1 | inconclusive [inhibitor, partial curve, poor fit] | 
CCCNC(=O)N(C)C[C@H]1Oc2ncc(Br)cc2C(=O)N([C@H](C)CO)C[C@H]1C |  | inactive: 3.92%
Cc1cccc(N2CCN(S(=O)(=O)c3cc(C(=O)Nc4ccc(Oc5ccccc5)cc4)ccc3F)CC2)c1C | inconclusive [inhibitor, partial curve, poor fit] | 
O=C(O)c1ccc(N/N=C/c2cn(Cc3ccc(F)cc3)c3ccccc23)cc1 | inconclusive [inhibitor, partial curve, poor fit] | 
CC1Cc2ccccc2N1C(=O)COC(=O)c1ccc(Cl)nc1 (stereo not drawn) |  | inactive: 5.21% [at 7.66 µM]
Cc1ccc2c(CC(=O)NNC(=O)c3ccccc3)coc2c1 | inconclusive [inhibitor, partial curve] | 
C=CCn1cnc2c(NCc3ccccc3)ncnc21 |  | inactive: 4.19%
Cc1cccc(NC(=O)C2(c3cccs3)CCOCC2)c1 | inconclusive [inhibitor, partial curve, poor fit] | 
O=C(Cc1ncc(C(F)(F)F)cc1Cl)Nc1ccc(F)cc1 | inconclusive [inhibitor, partial curve] | 
COc1ccccc1-c1nc(C(=O)NCC2CCCO2)cc2c1[nH]c1ccccc12 (stereo not drawn) | inconclusive [inhibitor, single point] | 
CC(C)CC1=NN2C(=N)/C(=C\c3coc4ccccc4c3=O)C(=O)N=C2S1 |  | inactive: 7.19%
COc1cccc(NC(=O)/C=C/c2ccc(S(=O)(=O)N3CCOCC3)cc2)c1 | inconclusive [inhibitor, partial curve, poor fit] | 
C[C@]1(C(=O)NCCCNc2ncc(C(F)(F)F)cc2Cl)C=C[C@@H](Cc2ccccc2)N1C(=O)c1ccccc1 | inconclusive [inhibitor, single point] | 
Cc1cccc(N(CC(=O)NC2CCCCC2)C(=O)c2c(C)noc2C)c1 | inconclusive [inhibitor, full curve] | 
O=C(Nc1cccc(Cl)c1N1CCOCC1)c1ccco1 | inconclusive [inhibitor, partial curve, poor fit] | 
CN(Cc1ccccc1)S(=O)(=O)c1ccc(NC(=O)c2cc(=O)c3ccccc3o2)cc1 | inconclusive [inhibitor, partial curve, poor fit] | 
CCCc1ccc(OCc2ccc(C(=O)O)o2)c(OC)c1 | inconclusive [inhibitor, partial curve, poor fit] | 
Cc1cc(C)nc(N2CCCC(C(=O)NCCC3=CCCCC3)C2)n1 (stereo not drawn) | inconclusive [inhibitor, single point] | 
COc1c(F)cccc1C1=CC(=O)C[C@H](c2ccc(F)cc2)C1 | inconclusive [inhibitor, partial curve, poor fit] | 
